Measured values from PubChem BioAssay AID686979 (National Center for Advancing Translational Sciences (NCATS), 2013).
Hit rate of the full screen: of about 420,000 compounds, about 50,000 (12%) were called active. This list was built around the results that the source calls inconclusive (neither active nor inactive); the mix of calls is not that of the screen. Calls follow the shape of the dose curve; as a rule, active = well fitted inhibition curve with a large enough effect; inconclusive = small, poorly fitted or top-dose-only effect; inactive = flat fitted curve, though single readings scatter. No potency is given beside an inconclusive call; the fits are too rough.

assay: qHTS for Inhibitors of human tyrosyl-DNA phosphodiesterase 1 (TDP1): qHTS in cells in presence of CPT; conditions: chicken DT40 Tdp1-/-;hTDP1 cells + 20 nM CPT, ATP luminescence, 48 h; activity change, negative = growth inhibition: at 46.2 µM (top of the series) unless noted; also: nearly all actives have a fitted effect of over 55% in size
Procedure, shortened: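 Chicken DT40 Tdp1-/- cells complemented with human TDP1, 400 cells/well, exposed to compounds plus 20 nM camptothecin for at least 48 h at 37 C; viability read as ATP content by CellTiter-Glo luminescence.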
% is scaled to controls: 0 for no effect and ±100 for the full control effect; potency is read from the fitted curve at half-maximal effect; tags tell the direction and shape of the fitted curve.

SMILES | Potency | activity change, negative = growth inhibition
Cc1ccc(S(=O)(=O)N2CCN(C(=O)CCOc3ccccc3C)CC2)cc1C | inconclusive [inhibitor, partial curve] | –
c1ccc(-c2nnc(-c3ccccn3)nn2)nc1 | active: 14.6 µM | –
OCCSc1nc(N2CCOCC2)nc(N2CCOCC2)n1 | inconclusive [inhibitor, partial curve, poor fit] | –
CCc1ccccc1NC(=O)CNC(=O)c1cc(C2CC2)nn1-c1ccccc1 | – | inconclusive: -30.6% [inhibitor]
O=C(NCc1ccccc1)c1cccc(COc2ccccc2Cl)c1 | – | inactive: -14.7%
O=C(NCc1ccccc1F)c1sc2ncccc2c1-n1cccc1 | active: 23.1 µM | –
CCCCNC(=S)NNC(=O)c1cc(C)on1 | inconclusive [inhibitor, single point] | –
CCOc1ccc(C2=NC(c3cccs3)=Nc3ccc(CC)cc3N2)cc1OCC | inconclusive [inhibitor, single point] | –
CC(=O)NN1C(=O)c2ccc3c4c(ccc(c24)C1=O)C(=O)N(NC(C)=O)C3=O | inconclusive [inhibitor, partial curve] | –
CCN1CCN(c2ccc(S(=O)(=O)N3CCCCC3)cc2NC(=O)c2cccc(C)c2)CC1 | inconclusive [inhibitor, single point] | –
CCN(CC)c1ccc(NC(=O)CN2CCN(c3ccccc3F)CC2)cc1 | inconclusive [inhibitor, partial curve, poor fit] | –
CC(C)(C)C(=O)NC(c1ccccc1)c1c(O)ccc2ccccc12 (stereo not drawn) | inconclusive [inhibitor, single point] | –
CC1C(=O)N(Cc2ccc([N+](=O)[O-])cc2)c2ccccc2N1C(=O)C1CC1 (stereo not drawn) | inconclusive [inhibitor, partial curve] | –
Clc1cccc(Cc2c(-c3cccc(Cl)c3)nc3ccc(Br)cn23)c1 | inconclusive [inhibitor, single point] | –
CSc1ccccc1C(=O)N(C)C(c1ccccc1)c1ccccc1 | inconclusive [inhibitor, partial curve, poor fit] | –
Cc1noc2ncnc(N3CCN(c4ccc(F)cc4)CC3)c12 | inconclusive [inhibitor, partial curve] | –
COC(=O)CN1C(=O)C(C)(C)c2cc(S(=O)(=O)Nc3ccc(Br)cc3F)ccc21 | – | inactive: -6.06%
Cc1ccc(S(=O)(=O)NC2CCCc3ccccc32)cc1C (stereo not drawn) | inconclusive [inhibitor, single point] | –
Cc1ccc(NS(=O)(=O)c2c(C(=O)N3CCCCCC3)c(C)n(C)c2C)c(Cl)c1 | inconclusive [inhibitor, single point] | –
CCC(=O)Nc1c(C)cc(C)cc1Cl | – | inactive: 7.99%
OC[C@@H]1CN(Cc2ccc3c(c2)OCO3)C[C@H](n2cnc3c(NCc4ccc(F)cc4)ncnc32)O1 | inconclusive [inhibitor, single point] | –
COc1ccc(-c2cc(C(F)(F)F)nc(N3CCN(C)CC3)n2)cc1 | inconclusive [inhibitor, single point] | –

SMILES | Potency | activity change, negative = growth inhibition
CCOC(=O)c1nnn(CC(=O)N2N=C(c3cccc4ccccc34)CC2c2ccccc2)c1C(=O)OCC (stereo not drawn) | inconclusive [inhibitor, partial curve] | –
CCCC(NCC(=O)Nc1ccccc1C(=O)NC1CC1)c1ccccc1 (stereo not drawn) | inconclusive [inhibitor, single point] | –
C/C(=N\NC(=O)c1ccc(NS(=O)(=O)c2cccs2)cc1)c1ccc(Cl)cc1 | inconclusive [inhibitor, single point] | –
Cc1cc(C)n(CCc2nc3c4ccccc4nc(N4CCN(c5cccc(C)c5C)CC4)n3n2)n1 | – | inconclusive: -28.4% [inhibitor]
CCCC(=O)N1CCC1(C)C(=O)Nc1scc(C)c1C#N (stereo not drawn) | active: 20.6 µM | –
COc1ccc(OC)c2sc(N(CCN(C)C)C(=O)c3ccc4ccccc4c3)nc12 | inconclusive [inhibitor, single point] | –
CC(=O)c1cccc(-n2c(=O)c3c4c(sc3n(Cc3cccc(C)c3)c2=O)CN(C(C)=O)CC4)c1 | active: 16.4 µM | –
Cc1cc(C)n(-c2c(F)c(F)c(COC(=O)c3ccccc3)c(F)c2F)n1 | – | inactive: -8.41%
Cc1ccc(-c2nn(-c3ccc(F)cc3)cc2C(=O)NCC(c2cccs2)N2CCOCC2)cc1 (stereo not drawn) | inconclusive [inhibitor, single point] | –
Clc1ccc(OCc2nnc3n2N=C(c2ccc4c(c2)OCCO4)CS3)c(Cl)c1 | active: 9.2 µM | –
CN(C(=O)c1ccccc1C(=O)OCC(=O)c1ccc(Br)cc1)c1ccccc1 | inconclusive [inhibitor, single point] | –
COc1ccc(C(C(=O)NC2CCCCC2)N(C(=O)CCl)c2ccc(OC)cc2)cc1 (stereo not drawn) | active: 1.84 µM | –
Nc1nc2ncccn2c1-c1ccc(F)cc1 | – | inactive: 1.13%
Cc1ccc(/C=C(\C#N)c2nc(-c3ccc(-c4ccccc4)cc3)cs2)cc1 | – | inactive: -20.3%
CC1=CC(C/C(C)=C/COc2ccc3ccc(=O)oc3c2)OC1=O (stereo not drawn) | inconclusive [inhibitor, single point] | –
COc1cc(C(=O)C(=O)c2ccc(OC)c(OC)c2)ccc1O | – | inactive: 17.9%
Cc1ccc(S(=O)(=O)C2(C(=O)Nc3ccc(Cl)c(C(F)(F)F)c3)CC2)cc1 | inconclusive [inhibitor, single point] | –
N#Cc1ccsc1NC(=O)CN(Cc1ccccc1)Cc1ccccc1 | active: 20.6 µM | –
CCOc1ccccc1CNC(=O)CCc1c(C)nn(-c2ccc(N3CCCC3)nn2)c1C | inconclusive [inhibitor, single point] | –
COc1ccc(CC(N)c2csc(Nc3cc(NCc4ccco4)ncn3)n2)cc1 (stereo not drawn) | inconclusive [inhibitor, partial curve, poor fit] | –
O=C(CCC(=O)Nc1ccc(F)cc1)N/N=C/c1ccccc1O | inconclusive [inhibitor, single point] | –
